In the supplement of paper PMC8728848:
The other results are listed elsewhere or left out.

Key:
Experiment in all cases: glycan array binding signal (z-score within array); higher = stronger binding
Details in all cases: glycan notation: IUPAC condensed, linker removed
[1] = target: Gal(b1-4)GlcNAc(b1-3)Gal(b1-4)GlcNAc(b1-2)[Gal(b1-4)GlcNAc(b1-3)Gal(b1-4)GlcNAc(b1-6)]Man(a1-6)[Gal(b1-4)GlcNAc(b1-3)Gal(b1-4)GlcNAc(b1-2)Man(a1-3)]Man(b1-4)GlcNAc(b1-4)GlcNAc
Summary of the method: (§1)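 Arrays were curated from the Consortium for Functional Glycomics database, 3228 in total, and kept only where the protein sequence was available. Binding is expressed as a within-array Z-score. This score was averaged across arrays of the same protein sequence at different concentrations or buffers and across linkers, and negative values can be read as non-binding.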

[2] = target: Gal(b1-4)GlcNAc(b1-3)Gal(b1-4)GlcNAc(b1-2)[Gal(b1-4)GlcNAc(b1-3)Gal(b1-4)GlcNAc(b1-6)]Man(a1-6)[Gal(b1-4)GlcNAc(b1-3)Gal(b1-4)GlcNAc(b1-2)Man(a1-3)]Man(b1-4)GlcNAc(b1-4)[Fuc(a1-6)]GlcNAc
Summary of the method: as §1

[3] = target: Gal(b1-4)GlcNAc(b1-3)Gal(b1-4)GlcNAc(b1-3)Gal(b1-4)GlcNAc
Summary of the method: as §1

[4] = target: Gal(b1-4)GlcNAc(b1-3)Gal(b1-4)GlcNAc(b1-3)Gal(b1-4)GlcNAc(b1-2)Man(a1-3)[Gal(b1-4)GlcNAc(b1-3)Gal(b1-4)GlcNAc(b1-3)Gal(b1-4)GlcNAc(b1-2)Man(a1-6)]Man(b1-4)GlcNAc(b1-4)GlcNAc
Summary of the method: as §1

[5] = target: Gal(b1-4)GlcNAc(b1-3)Gal(b1-4)GlcNAc(b1-3)Gal(b1-4)GlcNAc(b1-2)Man(a1-3)[Gal(b1-4)GlcNAc(b1-3)Gal(b1-4)GlcNAc(b1-3)Gal(b1-4)GlcNAc(b1-2)Man(a1-6)]Man(b1-4)GlcNAc(b1-4)[Fuc(a1-6)]GlcNAc
Summary of the method: as §1

[6] = target: Gal(b1-4)GlcNAc(b1-3)Gal(b1-4)GlcNAc(b1-3)Gal(b1-4)GlcNAc(b1-2)[Gal(b1-4)GlcNAc(b1-3)Gal(b1-4)GlcNAc(b1-3)Gal(b1-4)GlcNAc(b1-6)]Man(a1-6)[Gal(b1-4)GlcNAc(b1-3)Gal(b1-4)GlcNAc(b1-3)Gal(b1-4)GlcNAc(b1-2)Man(a1-3)]Man(b1-4)GlcNAc(b1-4)[Fuc(a1-6)]GlcNAc
Summary of the method: as §1

[7] = target: Gal(b1-4)GlcNAc(b1-3)Gal(b1-4)GlcNAc(b1-3)Gal(b1-4)GlcNAc(b1-3)Gal(b1-4)GlcNAc(b1-2)Man(a1-3)[Gal(b1-4)GlcNAc(b1-3)Gal(b1-4)GlcNAc(b1-3)Gal(b1-4)GlcNAc(b1-3)Gal(b1-4)GlcNAc(b1-2)Man(a1-6)]Man(b1-4)GlcNAc(b1-4)GlcNAc
Summary of the method: as §1

[8] = target: Gal(b1-4)GlcNAc(b1-3)Gal(b1-4)GlcNAc(b1-3)Gal(b1-4)GlcNAc(b1-3)Gal(b1-4)GlcNAc(b1-2)Man(a1-3)[Gal(b1-4)GlcNAc(b1-3)Gal(b1-4)GlcNAc(b1-3)Gal(b1-4)GlcNAc(b1-3)Gal(b1-4)GlcNAc(b1-2)Man(a1-6)]Man(b1-4)GlcNAc(b1-4)[Fuc(a1-6)]GlcNAc
Summary of the method: as §1

[9] = target: Gal(b1-4)GlcNAc(b1-3)Gal(b1-4)GlcNAc(b1-3)Gal(b1-4)GlcNAc(b1-3)Gal(b1-4)GlcNAc(b1-2)[Gal(b1-4)GlcNAc(b1-3)Gal(b1-4)GlcNAc(b1-3)Gal(b1-4)GlcNAc(b1-3)Gal(b1-4)GlcNAc(b1-6)]Man(a1-6)[Gal(b1-4)GlcNAc(b1-3)Gal(b1-4)GlcNAc(b1-3)Gal(b1-4)GlcNAc(b1-3)Gal(b1-4)GlcNAc(b1-2)Man(a1-3)]Man(b1-4)GlcNAc(b1-4)[Fuc(a1-6)]GlcNAc
Summary of the method: as §1

[10] = target: Gal(b1-4)GlcNAc(b1-3)Gal(b1-4)GlcNAc(b1-3)Gal(b1-4)GlcNAc(b1-3)Gal(b1-4)GlcNAc(b1-3)Gal(b1-4)GlcNAc(b1-2)Man(a1-3)[Gal(b1-4)GlcNAc(b1-3)Gal(b1-4)GlcNAc(b1-3)Gal(b1-4)GlcNAc(b1-3)Gal(b1-4)GlcNAc(b1-3)Gal(b1-4)GlcNAc(b1-2)Man(a1-6)]Man(b1-4)GlcNAc(b1-4)GlcNAc
Summary of the method: as §1

[11] = target: Gal(b1-4)GlcNAc(b1-3)Gal(b1-4)GlcNAc(b1-3)Gal(b1-4)GlcNAc(b1-3)Gal(b1-4)GlcNAc(b1-3)Gal(b1-4)GlcNAc(b1-2)Man(a1-3)[Gal(b1-4)GlcNAc(b1-3)Gal(b1-4)GlcNAc(b1-3)Gal(b1-4)GlcNAc(b1-3)Gal(b1-4)GlcNAc(b1-3)Gal(b1-4)GlcNAc(b1-2)Man(a1-6)]Man(b1-4)GlcNAc(b1-4)[Fuc(a1-6)]GlcNAc
Summary of the method: as §1

[12] = target: Gal(b1-4)GlcNAc(b1-3)Gal(b1-4)GlcNAc(b1-3)Gal(b1-4)GlcNAc(b1-3)Gal(b1-4)GlcNAc(b1-3)Gal(b1-4)GlcNAc(b1-2)[Gal(b1-4)GlcNAc(b1-3)Gal(b1-4)GlcNAc(b1-3)Gal(b1-4)GlcNAc(b1-3)Gal(b1-4)GlcNAc(b1-3)Gal(b1-4)GlcNAc(b1-6)]Man(a1-6)[Gal(b1-4)GlcNAc(b1-3)Gal(b1-4)GlcNAc(b1-3)Gal(b1-4)GlcNAc(b1-3)Gal(b1-4)GlcNAc(b1-3)Gal(b1-4)GlcNAc(b1-2)Man(a1-3)]Man(b1-4)GlcNAc(b1-4)[Fuc(a1-6)]GlcNAc
Summary of the method: as §1

[13] = target: Gal(b1-4)GlcNAc(b1-3)Gal(b1-4)GlcNAc(b1-3)Gal(b1-4)GlcNAc(b1-3)Gal(b1-4)GlcNAc(b1-3)Gal(b1-4)GlcNAc(b1-3)Gal(b1-4)GlcNAc(b1-2)Man(a1-3)[Gal(b1-4)GlcNAc(b1-3)Gal(b1-4)GlcNAc(b1-3)Gal(b1-4)GlcNAc(b1-3)Gal(b1-4)GlcNAc(b1-3)Gal(b1-4)GlcNAc(b1-3)Gal(b1-4)GlcNAc(b1-2)Man(a1-6)]Man(b1-4)GlcNAc(b1-4)GlcNAc
Summary of the method: as §1

[14] = target: Gal(b1-4)GlcNAc(b1-3)Gal(b1-4)GlcNAc(b1-3)GalNAc
Summary of the method: as §1

[15] = target: Gal(b1-4)GlcNAc(b1-3)Gal(b1-4)GlcNAc(b1-3)[Gal(b1-4)GlcNAc(b1-3)Gal(b1-4)GlcNAc(b1-6)]GalNAc
Summary of the method: as §1

[16] = target: Gal(b1-4)GlcNAc(b1-3)Gal(b1-4)GlcNAc(b1-6)[Gal(b1-3)]GalNAc
Summary of the method: as §1

[17] = target: Gal(b1-4)GlcNAc(b1-3)Gal(b1-4)[Fuc(a1-3)]GlcNAc(b1-3)Gal(b1-4)[Fuc(a1-3)]GlcNAc
Summary of the method: as §1

[18] = target: Gal(b1-4)GlcNAc(b1-3)GalNAc
Summary of the method: as §1

[19] = target: Gal(b1-4)GlcNAc(b1-3)[Fuc(a1-3)GlcNAc(b1-6)]Gal(b1-4)Glc
Summary of the method: as §1

[20] = target: Gal(b1-4)GlcNAc(b1-3)[Gal(b1-4)GlcNAc(b1-6)]Gal(b1-4)GlcNAc
Summary of the method: as §1

[21] = target: Gal(b1-4)GlcNAc(b1-3)[GlcNAc(b1-6)]Gal(b1-4)GlcNAc
Summary of the method: as §1

[22] = target: Gal(b1-4)GlcNAc(b1-6)Gal(b1-4)GlcNAc
Summary of the method: as §1

[23] = target: Gal(b1-4)GlcNAc(b1-6)GalNAc
Summary of the method: as §1

[24] = target: Gal(b1-4)GlcNAc(b1-6)[Gal(b1-3)]GalNAc
Summary of the method: as §1

[25] = target: Gal(b1-4)GlcNAc(b1-6)[Gal(b1-4)GlcNAc(b1-3)]GalNAc
Summary of the method: as §1

[26] = target: Gal(b1-4)GlcNAc6P
Summary of the method: as §1

[27] = target: Gal(b1-6)Gal
Summary of the method: as §1

[28] = target: Gal3S(b1-3)GalNAc
Summary of the method: as §1

[29] = target: Gal3S(b1-3)GlcNAc
Summary of the method: as §1

[30] = target: Gal3S(b1-3)[Fuc(a1-4)]GlcNAc
Summary of the method: as §1

B1: SialidaseA (Arthrobacter ureafaciens) (protein)
chain: MRSNSTSAPSLVRRAATGVLTCAVSIGLLAGLGLPAQAAPTPPNSPTLPPGSFSETNLAADRTAANFFYRIPALTYLGNDVVLAAWDGRPGSAADAPNPNSIVQRRSTDGGKTWGPVQVIAAGHVADASGPRYGYSDPSYIYDAEANKVFAFFVYSKDQGFGGSQFGNDDADRNVISSAVIESSDAGVTWSQPRLITSVTKPGTSKTNPAAGDVRSNFASSGEGIQLKYGPHKGRLIQQYAGDVRQADGSNKIQAYSVYSDDHGVTWHKGANVGDRMDENKTVELSDGRVLLNSRDNANRGYRKVAVSTDGGATYGPVSQDTELPDPANNGAIARMFPNAAQGSADAKKLIFTNANSKTGRENVSARVSCDDGETWPGVRTIRSGFSAYSTVTRLADGKFGVLYEGNYTDNMPFATFDDAWLNYVCAPLAVPAVNIAPSATQEVPVTVTNQEATTLSGATATVYTPSGWSATTVPVPDVAPGASVTVTVALTAPADASGPRSLNAAFTTADGRVSQFTFTATTPVAPQVGLTITGSAPARDVAANPYQAGDVLGYTLNVKSTANVAANSVPLTGTFDSGFLPPAAPNCRYNNLAAGASYNCTTAKHTITAADMERGYFVPEATFSITSTTTPSLTKTVQFTGAAVALRDGLISADISGARTDVGRDLATRPYAAGELVPYAFTVKNTSPFVEQVVPTAGNFSPFLPAGAGNCRYLSLPAGQSYECATPRHAVTAEEVEQGFFVPDTTWEVSAAGQSTRTYRINGGEVDLLVRDAALSATVVAEWKDADGDRFASAGDPVTFTYTVGNAGNVALTGLEAPDAGISLPFLAPGDTATATREHVLTAADVAGGSLAASAFEATARNGSKEVTATAEGQPLELKVQPAQPSKEPELTVQDLEDQTPPFDLGTAFKYRTGQKVSLAGLEYGQWYYVYLNKTGYRLGWMFPTTGDTVEFILPPEVRNGRDDVVVLDKDGRRVSFDRLQVTPKGEKI
glycan array binding signal (z-score) [1]: -0.36
glycan array binding signal (z-score) [2]: 0.8
glycan array binding signal (z-score) [3]: -0.673
glycan array binding signal (z-score) [4]: 0.122
glycan array binding signal (z-score) [5]: 0.225
glycan array binding signal (z-score) [6]: 0.354
glycan array binding signal (z-score) [7]: -0.27
glycan array binding signal (z-score) [8]: 0.406
glycan array binding signal (z-score) [9]: 0.286
glycan array binding signal (z-score) [10]: 0.053
glycan array binding signal (z-score) [11]: 0.059
glycan array binding signal (z-score) [12]: 0.362
glycan array binding signal (z-score) [13]: 0.155
glycan array binding signal (z-score) [14]: -0.024
glycan array binding signal (z-score) [15]: 0.142
glycan array binding signal (z-score) [16]: -0.451
glycan array binding signal (z-score) [17]: -0.655
glycan array binding signal (z-score) [18]: -0.697
glycan array binding signal (z-score) [19]: -0.718
glycan array binding signal (z-score) [20]: -0.428
glycan array binding signal (z-score) [21]: -0.447
glycan array binding signal (z-score) [22]: -0.281
glycan array binding signal (z-score) [23]: -0.545
glycan array binding signal (z-score) [24]: -0.5
glycan array binding signal (z-score) [25]: -0.374
glycan array binding signal (z-score) [26]: -0.685
glycan array binding signal (z-score) [27]: -0.753
glycan array binding signal (z-score) [28]: -0.353
glycan array binding signal (z-score) [29]: -0.552
glycan array binding signal (z-score) [30]: -0.337
